Among the data in PubChem BioAssay AID2202238 (Ras Initiative Chemistry Research Team, Frederick National …, 2025) are percent labeling values, retold here.

Out of some 2,200 compounds screened, fewer than 10 were called active. Some of the results follow. Where no call is shown, the source marks the result inconclusive.

For the experiment, the target named is GTPase KRas (Homo sapiens) (UniProt P01116). Kind of experiment: Covalent labelling of cysteine mutants by fragments, read by mass spectrometry (AID 2202238). Further details: protein at 5 µM with 500 µM competing thiol for 1.5 h. To be noted: KRAS G12D cysteine mutants, disulfide tethering, MALDI-TOF labeling; stronger effect = higher value; H27C mutant labeling; fragment at 500 µM.
Chain of UniProt P01116 (P01116 whole entry, looked up, the tested form may be a part): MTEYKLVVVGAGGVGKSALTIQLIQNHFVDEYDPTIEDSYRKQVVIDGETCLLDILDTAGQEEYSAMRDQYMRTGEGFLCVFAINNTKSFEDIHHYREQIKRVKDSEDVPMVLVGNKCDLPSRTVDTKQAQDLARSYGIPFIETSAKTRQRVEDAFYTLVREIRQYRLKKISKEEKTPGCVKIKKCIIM
As for `O=C(NCCS)c1cc(N2CCCC2=O)ccc1F`, the percent labeling is 43.3%.
With `O=C(CCS)NC1CCN(C(=O)CCc2ccccc2)CC1` the figure was 38.2%; with `O=C(CCS)Nc1cnn(-c2cnc3ccccc3n2)c1`, 46.7%; with `O=C(CCS)N1CCOCC1c1noc(-c2ccccc2)n1` (stereo unspecified), 39.5%.
On to `O=C(NCCS)C1CCCCN1C(=O)C1CCCC1` (stereo unspecified), for which the percent labeling turned out to be 26.3%.
To `COc1ccc2[nH]c(C)c(C(=O)NCCS)c2c1` belongs 36%; to `Cc1cc2c(cc(C(=O)NCCS)n2CC(F)(F)F)s1`, 22.9%.
With `O=C(NCCS)C1CCCN1C(=O)Cc1ccc2ccccc2c1` (stereo unspecified) the figure was 31.4%; with `CC(C)(COc1ncccc1Br)NC(=O)CCS`, 30.7%; with `O=C(NCCS)[C@@H]1OCCO[C@@H]1C(F)(F)F`, 38.5%.
On to `Cc1sc(=O)n(CCC(=O)NCCS)c1C`, for which the percent labeling came out at 24.3%.
With `CN(Cc1ccc(-c2ccc(Br)cc2)o1)C(=O)CCS` the figure was 20.7%.
With `CCc1ccc(-c2csc(NC(=O)CCS)n2)s1` the figure was 33.6%.
To `O=C(CN1CCC(c2ccccc2)NC1=O)NCCS` (stereo unspecified) belongs 35.4%; to `Cc1nc2c(C#N)c[nH]n2c(=O)c1CC(=O)NCCS`, 19.2%; to `Cn1ccnc1N1CCC(C(=O)NCCS)C1` (stereo unspecified), 10.2%.
The molecule `CN(C)CCN(Cc1ccco1)C(=O)CCS` had a percent labeling of 49%.
To `O=C(CCS)NCc1nnc2n1CCC(C(F)(F)F)C2` (stereo unspecified) belongs 31.6%; to `O=C(CN1C(=O)COc2cc(Br)ccc21)NCCS`, 26.6%; to `O=C(CCS)N1CCCC(Cn2cnc3ccccc32)C1` (stereo unspecified), 47%.
With `Cn1nnnc1N1CCC(NC(=O)CCS)CC1` the figure was 33.8%; with `COc1ccc(-c2nc(CC(=O)NCCS)cs2)cc1OC`, 36.3%; with `CCCc1c(NC(=O)CCS)cnn1-c1cc(F)c(OC)cc1F`, 33.2%.
To `CNC(=O)[C@@H]1Cc2ccccc2CN1C(=O)CCS` belongs 32.7%.
Molecule `O=C(CCS)NCCn1ncc(Br)n1` came in with a percent labeling of 36.4%.
To `O=C(NCCS)c1nn(-c2ccc(F)cc2)ccc1=O` belongs 46.3%; to `O=C(CC1CCC2(CCOCC2)CO1)NCCS` (stereo unspecified), 31%; to `O=C(CCS)Nc1ccc2ccc(O)cc2c1`, 33.8%.
With `O=C(CCS)NC1(c2nn[nH]n2)CCCC1` the figure was 20.3%; with `O=C(NCCS)c1ccc(OCc2ccccc2)cc1`, 11.7%; with `Cn1cc(-c2cc(F)ccc2NC(=O)CCS)cn1`, 37.6%.
In turn, `Cn1nc(C(F)(F)F)nc1CNC(=O)CCS` had a percent labeling of 28.9%.
To `COc1cccc(CNC(=O)CCS)c1OC(F)F` belongs 41.6%; to `O=C(CCS)NCc1nnnn1CC1CC1`, 32.1%; to `O=C(NCCS)c1cc(-c2c[nH]c3ccccc23)n[nH]1`, 20.7%.
`O=C(CCS)N1CCN(c2ccccc2)C(=O)C1` returned a percent labeling of 33.1%.
As for `O=C(CCS)N1CCC(c2nc(C3CC3)n[nH]2)CC1`, the percent labeling worked out at 39.8%.
With `CN1CCN(Cc2ccc(CNC(=O)CCS)cc2)CC1`, the percent labeling was determined as 52.2%.
With `O=C(CCS)Nc1ccc(-c2ncc3n2CCCC3)cc1` the figure was 48.5%.
With `CCCn1ccnc1-c1cccc(NC(=O)CCS)c1`, the percent labeling is 50.2%.
With `O=C(CN1C(=O)C2CCCCC2C1=O)NCCS` (stereo unspecified) the figure was 31.5%; with `O=C(CCCOc1ccc2c(c1)OCO2)NCCS`, 34.7%; with `Cn1c(=O)oc2cc(NC(=O)CCS)ccc21`, 34.5%.
To `CC(C(=O)NCCS)N1C(=O)c2ccccc2C1=O` (stereo unspecified) belongs 32.1%; to `O=C(NCCS)c1ccc2cncc(Br)c2n1`, 39.9%.
In turn, `O=C(NCCS)c1ccc(F)c2ccsc12` came in with a percent labeling of 18.7%.
With `O=C(CCS)NCC1(c2ccccc2)CCOCC1` the figure was 34.3%; with `O=C(NCCS)c1[nH]c2ccc(Cl)cc2c1Cl`, 20.9%.
With `COC(=O)c1cc2n(n1)CCCC2NC(=O)CCS` (stereo unspecified) the figure was 33.4%; with `O=C(/C=C/c1ccc(O)c(O)c1)NCCS`, 37%.
With `CN1C[C@@H](C(=O)NCCS)[C@H](c2ccccc2)C1` the figure was 43%.
`O=C(NCCS)c1[nH]ccc1-c1c(Cl)cccc1Cl` returned a percent labeling of 20.9%.
Turning to `CC(C)C(NC(=O)c1ccc(Cl)cc1)C(=O)NCCS` (stereo unspecified), the percent labeling amounted to 27.4%.
With `Cc1sc(NC(=O)CCS)nc1-c1ccccc1` the figure was 41.7%; with `CC(C)c1cccc(N2CC(C(=O)NCCS)CC2=O)c1` (stereo unspecified), 35.9%.
The molecule `N#Cc1cn(CC(F)(F)F)nc1NC(=O)CCS` displayed a percent labeling of 39.3%.
To `O=C(CCS)NCCc1cnc(SC2CCCC2)nc1` belongs 36.2%.
With `O=C(CCS)NCc1cn2c(n1)CCCC2` the figure was 35.5%; with `CC(c1ccccc1)c1cc(C(=O)NCCS)n[nH]1` (stereo unspecified), 33.9%; with `Cc1nc(C(=O)NCCS)nn1-c1n[nH]c(C(F)(F)F)n1`, 24%.
With `O=C(CCS)Nc1cccc(NC(=O)c2ccc3c(c2)OCO3)c1` the figure was 21.9%; with `O=C(CCS)NC1(c2noc(-c3cccnc3)n2)CCCCCC1`, 38.7%.
Molecule `O=C(COc1cccc(N2CCCC2=O)c1)NCCS` came in with a percent labeling of 35.7%.
To `Cn1cc(-c2cccc(C(=O)NCCS)c2)cn1` belongs 42%.
To `O=C(NCCS)c1oc2ccccc2c1COc1ccccc1` belongs 27.2%; to `O=C(NCCS)c1cc2sc3ccccc3c2s1`, 15.4%.
To `COc1ccc2cc(C(=O)NCCS)n(C)c2c1` belongs 20.1%; to `O=C(NCCS)c1cnn(-c2ncccc2Cl)c1C(F)(F)F`, 40.3%; to `O=C1CC2(CCOC2)C(C(=O)NCCS)CN1` (stereo unspecified), 26.3%.
The molecule `O=C(NCCS)c1ccn(-c2ccc(Cl)cc2Cl)n1` came in with a percent labeling of 32.4%.
Take `Cc1cccc(C)c1-n1nnnc1CNC(=O)CCS`: the percent labeling came to 41.4%.
